Results: PubChem BioAssay AID1345083 (National Center for Advancing Translational Sciences (NCATS), 2018)
The campaign covered roughly 94,000 compounds. About 6,200 (6.6%) were called active. The inconclusive results got no clear call from the source; some entries with a clear call stand among them for comparison. The call rests on the fitted dose curve; in most records, active means well fitted inhibition curve with a large enough effect; inconclusive means small, poorly fitted or top-dose-only effect; inactive means flat fitted curve, though single readings scatter. Potencies of inconclusive entries are doubtful fits and often do not repeat.

assay: Cytotoxic Profiling in HEK 293 Cell Line of Diverse Libraries Using Quantitative High-Throughput Screening; conditions: HEK 293 viability, ATP luminescence (CellTiter-Glo), 48-72 h; activity change, negative = cytotoxicity: at 115 µM (top of the series) unless noted; series mostly up to 115 µM; further: nearly all actives have a fitted effect of over 60% in size
In short: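 250 HEK 293 cells/well; compound by pintool; incubated 48 or 72 hr at 37 degree Celsius; CellTiter-Glo added, 10 min RT, luminescence imaged.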
On the % scale 0 is the no-effect control and ±100 the full control effect; potency means the concentration at half of the fitted maximal effect; tags describe the fitted curve by direction and shape.

For `CC(CNC(=O)C1CCN(C(=O)c2ncn3c2COC(c2ccccc2)C3)CC1)c1ccccc1` (centres undefined), which “activity change, negative = cytotoxicity” value is on record?
Its value is inactive: -15.5%.

With `O=C(CCCc1ccccc1)N1CCC(c2noc(-c3ccccc3)n2)C1` (centres undefined) as the compound, how does the Potency read?
The Potency was inconclusive: 79.4 µM [inhibitor, partial curve, poor fit].

For `Cc1ccc(OCc2nc(C3CCN(C(=O)c4ccn[nH]4)C3)no2)cc1` (centres undefined), which Potency is on record?
Its Potency is inconclusive: 50.1 µM [inhibitor, partial curve].

For `COc1ccc(-c2cc(N3CCC(NC(=O)c4ccc(F)cc4Cl)C3)n[nH]2)cc1` (centres undefined), which Potency is on record?
Its Potency is inconclusive: 39.8 µM [inhibitor, partial curve, poor fit].

With `CCN(CC)C(=O)c1ccc2c(c1)n(Cc1ccc(OC)cc1)c(=O)c1ccnn12` as the compound, how does the Potency read?
Its Potency is inconclusive: 89.1 µM [inhibitor, single point].

For `CN(C)c1ccc(C(=O)N2CCC3(CC2)NC(=O)N(c2cccc(F)c2)N3)cc1`, which Potency is on record?
Its Potency is inconclusive: 25.1 µM [inhibitor, full curve].

Which “activity change, negative = cytotoxicity” value does the source give for `CC1=C[C@@H](CNC(=O)NCc2ccccc2)[C@H](C(C)C)C[C@H]1CC(=O)N1CCN(C)CC1` here?
Its value is inactive: -10.3%.

Which Potency does the source give for `CCCNC(=O)N1CC(Oc2ccc(-c3nc(C)no3)cc2)C1` here?
The Potency was inconclusive: 5.62 µM [inhibitor, full curve, poor fit].

With `C[C@@H]1CN(c2cnc3ccccc3n2)CC[C@@]1(O)C1CCC1` as the compound, how does the Potency read?
Its Potency is inconclusive: 50.1 µM [inhibitor, partial curve, poor fit].

For `CCc1nc2c(c(-c3ccc(O)cc3)n1)CN(Cc1ccc(C)cc1)CC2`, which Potency is on record?
The Potency was inconclusive: 50.1 µM [inhibitor, partial curve, poor fit].

For `O=C(NCCc1ccccc1)C1=NO[C@@H]2CN(Cc3ccc(F)cc3)C[C@H]12`, which Potency is on record?
The Potency was inconclusive: 112 µM [inhibitor, partial curve, poor fit].

With `COc1ccc(CC(=O)N2CCN(c3nccc(Nc4ccccc4F)n3)CC2)cc1` as the compound, how does the Potency read?
The Potency was active: 44.7 µM.

Which Potency does the source give for `O=C1NC(=NC2CCCCC2)C2(CCN(Cc3ccc(F)cc3)CC2)N1c1cc(F)cc(F)c1` here?
The Potency was inconclusive: 50.1 µM [inhibitor, partial curve, poor fit].

Which Potency does the source give for `COc1cccc(-c2cn3c(n2)N(C(=O)Cc2ccsc2)CCC3)c1` here?
The Potency was inconclusive: 79.4 µM [inhibitor, single point].

For `COc1ccc(-c2cn3c(n2)CO[C@@H](CNC(=O)c2ccccc2OC)C3)cc1`, which Potency is on record?
The Potency was active: 70.8 µM.

Which Potency does the source give for `CN1C[C@H](NCc2cccc(Cl)c2)CCC[C@@H](C(=O)NCc2cc(F)cc(F)c2)CC1=O` here?
The Potency was active: 44.7 µM.

For `Cc1nc(NCc2csc(-c3cnccn3)n2)cc(C2CC(O)C2)n1` (centres undefined), which Potency is on record?
Its Potency is inconclusive: 44.7 µM [inhibitor, partial curve].

Which Potency does the source give for `O=c1n(-c2ccncc2)nc2n1CCN(Cc1ccc(C(F)(F)F)cc1)C2` here?
The Potency was active: 12.6 µM.

With `OC[C@@H]1CN(Cc2ccncc2F)C[C@H]1c1nc(-c2cccnc2)no1` as the compound, how does the Potency read?
Its Potency is inconclusive: 44.7 µM [inhibitor, partial curve, poor fit].

Which Potency does the source give for `COCCN1CCNc2cc(Nc3cccc(N(C)C)c3)ncc2C1` here?
The Potency was inconclusive: 89.1 µM [inhibitor, partial curve, poor fit].

For `O=C(NCCc1cccs1)c1ccc(Cn2ccn3nc4c(c3c2=O)CCCC4)cc1`, which Potency is on record?
The Potency was inconclusive: 50.1 µM [inhibitor, partial curve, poor fit].

Which Potency does the source give for `Cc1nn(-c2ccc(C(C)C)cc2)c(C)c1[C@@H]1C=C[C@@H](NC(=O)Nc2ccccc2)C1` here?
Its Potency is active: 39.8 µM.

For `O=C(NC[C@H]1O[C@H](Cc2cc(COc3ccccc3)on2)CC[C@@H]1O)Nc1ccccc1`, which Potency is on record?
The Potency was inconclusive: 50.1 µM [inhibitor, partial curve, poor fit].

With `O=C(Cn1ccn2nc(-c3ccc(F)cc3)c(CO)c2c1=O)Nc1ccccc1Cl` as the compound, how does the Potency read?
Its Potency is inconclusive: 70.8 µM [inhibitor, single point].

For `CCc1cccc(Nc2nc(-c3ccc(OC)c(OC)c3)no2)c1`, which Potency is on record?
Its Potency is inconclusive: 50.1 µM [inhibitor, partial curve, poor fit].

Which Potency does the source give for `Cn1ncc2c(C(=O)NCCCc3ccccc3)cc(-c3ccccc3)nc21` here?
The Potency was inconclusive: 89.1 µM [inhibitor, single point].

Which Potency does the source give for `Cc1nn(-c2ccccc2)c2c1C(C)N(CC1CN(C(=O)c3ccccc3F)C1)C2=O` (centres undefined) here?
The Potency was inconclusive: 50.1 µM [inhibitor, partial curve, poor fit].

Which “activity change, negative = cytotoxicity” value does the source give for `Oc1ccccc1CNC1(Cc2cc(-c3ccccc3)on2)COC1` here?
Its value is inactive: -21.4% [at 172 µM].

For `CC1=C[C@@H](CNS(=O)(=O)c2ccccc2)[C@H](C(C)C)C[C@H]1CC(=O)NCc1ccc(C#N)cc1`, which Potency is on record?
Its Potency is inconclusive: 44.7 µM [inhibitor, full curve, poor fit].

For `COc1ccc(-c2cc(-c3ccc4c(c3)C(=O)NC4)cn3cncc23)cc1`, which Potency is on record?
The Potency was inconclusive: 39.8 µM [inhibitor, partial curve, poor fit].

Which Potency does the source give for `CC1(C)[C@H]2CC=C(CN3CCC(CCC(=O)N4CCN(c5ccccc5)CC4)CC3)[C@@H]1C2` here?
Its Potency is inconclusive: 56.2 µM [inhibitor, partial curve, poor fit].

With `CC(c1nccs1)N(C)C(=O)c1csc2nc(-c3ccccc3Cl)cn12` (centres undefined) as the compound, how does the Potency read?
Its Potency is active: 22.4 µM.

Which Potency does the source give for `COc1ccc(NC(=O)c2ccc3c(c2)N(S(=O)(=O)c2ccccc2)CC3)cc1` here?
Its Potency is inconclusive: 20 µM [inhibitor, full curve, poor fit].

With `COc1ccc(-c2cc(N3CCC(NC(=O)c4ccc5c(c4)OCO5)CC3)n[nH]2)cc1` as the compound, how does the Potency read?
Its Potency is inconclusive: 56.2 µM [inhibitor, partial curve, poor fit].

Which “activity change, negative = cytotoxicity” value does the source give for `O=C1NCCCCCN(C(=O)Nc2ccccc2)[C@H]2CCCC[C@@H]12` here?
Its value is inactive: -2.97%.

With `CCOC(=O)[C@@H]1[C@@H](OC)C(=O)N(C)C12CCN(C(=O)c1cc(OC)c(OC)c(OC)c1)CC2` as the compound, how does the “activity change, negative = cytotoxicity” value read?
The value was inactive: -1.85%.

For `O=C(Nc1cccc(-c2ccc(N3CCOCC3)nn2)c1)Nc1cccc(C(F)(F)F)c1`, which Potency is on record?
The Potency was active: 28.2 µM.

Which Potency does the source give for `O=C(Cn1cccc1-c1nc(-c2ccccc2)no1)N1CCN(c2ccccc2F)CC1` here?
Its Potency is inconclusive: 44.7 µM [inhibitor, partial curve].

For `CCN1CC(Nc2ccc(-c3nc(CCCc4ccccc4)no3)cn2)CC1=O` (centres undefined), which Potency is on record?
Its Potency is inconclusive: 89.1 µM [inhibitor, single point].

With `CCCc1nc(NCc2nc(Cc3cccs3)no2)c2cnn(C)c2n1` as the compound, how does the Potency read?
The Potency was active: 44.7 µM.

For `c1cc(CN2CC(Oc3ccc4c(c3)OCO4)C2)cs1`, which “activity change, negative = cytotoxicity” value is on record?
Its value is inactive: -7.04%.

Which “outcome” value does the source give for `Cc1ccccc1CNC(=O)[C@@H]1OCCN(C2CC2)[C@H]1c1ccccc1` here?
The value was “inactive”.

For `O=C(C1CC1)N1CCN(Cc2ccccc2-c2ccccc2F)CC1`, which Potency is on record?
The Potency was inconclusive: 56.2 µM [inhibitor, partial curve, poor fit].

With `COC(=O)N1CCC(C(=O)N2CCC(c3nc4ncccc4[nH]3)CC2)C1` (centres undefined) as the compound, how does the Potency read?
The Potency was active: 35.5 µM.

With `Cn1c([C@H]2CCN(S(=O)(=O)Cc3ccccc3)C2)nc2ccccc21` as the compound, how does the Potency read?
Its Potency is inconclusive: 126 µM [inhibitor, single point].

With `COc1ccc(OC)c(C(C)NCc2cn[nH]c2-c2ccc(F)cc2)c1` (centres undefined) as the compound, how does the Potency read?
The Potency was inconclusive: 89.1 µM [inhibitor, single point].

Which Potency does the source give for `CCOC(=O)NC1CCCN(Cc2cccc(-c3ccc(C)c(Cl)c3)c2)C1` (centres undefined) here?
Its Potency is active: 39.8 µM.

With `O=C(NCc1cccs1)C1CN(C2CCCC2)C(=O)N1` (centres undefined) as the compound, how does the “outcome” value read?
Its value is “inactive [at 172 µM]”.

For `CCCNc1cc(N2CCC(CCC(=O)O)CC2)ncn1`, which “activity change, negative = cytotoxicity” value is on record?
Its value is inactive: 4.43%.

Which Potency does the source give for `CCc1cccc(NC(=O)N2C[C@@H](F)C[C@H]2C(=O)N2CCc3ccccc3C2)c1` here?
The Potency was inconclusive: 89.1 µM [inhibitor, single point].

With `Cc1cc(C)cc(CCC(=O)NC2(C#N)CCCCC2)c1` as the compound, how does the Potency read?
Its Potency is inconclusive: 79.4 µM [inhibitor, single point].

Which Potency does the source give for `O=C1NCc2ccccc2CC12CCCN2Cc1ccc(OC(F)(F)F)cc1` (centres undefined) here?
The Potency was inconclusive: 44.7 µM [inhibitor, partial curve, poor fit].

With `O=C(Cn1cccc1-c1nc(-c2ccc3c(c2)OCO3)no1)Nc1ccccc1Cl` as the compound, how does the Potency read?
Its Potency is inconclusive: 89.1 µM [inhibitor, single point].

With `CN(Cc1cn(-c2ccccc2)nn1)Cc1cc(-c2ccncc2)no1` as the compound, how does the Potency read?
The Potency was inconclusive: 35.5 µM [inhibitor, full curve].

With `CCOc1cccc(CN2C[C@@H](CO)[C@H](c3nc(C)no3)C2)c1` as the compound, how does the “activity change, negative = cytotoxicity” value read?
Its value is inactive: -8.1%.

For `COc1ccc(C(=O)N[C@@H]2CCC[C@@H]2C(=O)N2CCN(c3ccc(Cl)cc3)CC2)cc1`, which Potency is on record?
The Potency was inconclusive: 89.1 µM [inhibitor, single point].

Which Potency does the source give for `CCN1c2cc(C(=O)Nc3cccc(C(F)(F)F)c3)ccc2C(=O)N2CCCCCC21` (centres undefined) here?
The Potency was active: 12.6 µM.

Which “activity change, negative = cytotoxicity” value does the source give for `COc1ccc(CN[C@H]2C[C@H]3C(=O)NC[C@@H](CCC(=O)N4CCCCC4)N3C2)cc1` here?
The value was inactive: -15.4% [at 172 µM].

Which “activity change, negative = cytotoxicity” value does the source give for `O=C(NC1CCc2ccccc21)C1CCN(C(=O)c2ncn3c2COC(c2ccccc2)C3)CC1` (centres undefined) here?
Its value is inactive: -7.14%.

Which Potency does the source give for `Cc1c(Cl)cccc1NC(=O)C[C@H]1NC(=O)c2ccccc2NC1=O` here?
The Potency was active: 44.7 µM.

Which Potency does the source give for `O=C(NCC1CCN(c2cc(-c3ccc(Cl)cc3)[nH]n2)CC1)c1ccc[nH]1` here?
Its Potency is inconclusive: 56.2 µM [inhibitor, partial curve, poor fit].

Which Potency does the source give for `CCc1nc2c(c(-c3ccc(Cl)cc3)n1)CCN(C(=O)c1ccccc1OC)CC2` here?
Its Potency is inconclusive: 79.4 µM [inhibitor, partial curve].

Which Potency does the source give for `C#CCNC(=O)c1cc(-c2ccc(Cl)cc2Cl)c2nncn2n1` here?
Its Potency is inconclusive: 112 µM [inhibitor, partial curve, poor fit].

Which Potency does the source give for `Cc1nc(N2CCCCC2)n(CC(=O)Nc2cccc(Cl)c2)c(=O)c1C` here?
The Potency was inconclusive: 63.1 µM [inhibitor, partial curve, poor fit].
